Results reported in the supplement of paper PMC3334620.
Whole data set: some 33,000 sequences, median “E-score (-0.5 to 0.5)” near -0.043, cut for the highest 2% near 0.37. This is one part of the list.

target: T1, Upc2 (UniProt Q12151); experiment: PBM E-score (8-mer binding enrichment) (E-score (-0.5 to 0.5)); higher = stronger / more preferred TF binding; most listed sequences are background and not binding sites; conditions: protein concentration: 200 nM; construct: GST-full length
T1 sequence: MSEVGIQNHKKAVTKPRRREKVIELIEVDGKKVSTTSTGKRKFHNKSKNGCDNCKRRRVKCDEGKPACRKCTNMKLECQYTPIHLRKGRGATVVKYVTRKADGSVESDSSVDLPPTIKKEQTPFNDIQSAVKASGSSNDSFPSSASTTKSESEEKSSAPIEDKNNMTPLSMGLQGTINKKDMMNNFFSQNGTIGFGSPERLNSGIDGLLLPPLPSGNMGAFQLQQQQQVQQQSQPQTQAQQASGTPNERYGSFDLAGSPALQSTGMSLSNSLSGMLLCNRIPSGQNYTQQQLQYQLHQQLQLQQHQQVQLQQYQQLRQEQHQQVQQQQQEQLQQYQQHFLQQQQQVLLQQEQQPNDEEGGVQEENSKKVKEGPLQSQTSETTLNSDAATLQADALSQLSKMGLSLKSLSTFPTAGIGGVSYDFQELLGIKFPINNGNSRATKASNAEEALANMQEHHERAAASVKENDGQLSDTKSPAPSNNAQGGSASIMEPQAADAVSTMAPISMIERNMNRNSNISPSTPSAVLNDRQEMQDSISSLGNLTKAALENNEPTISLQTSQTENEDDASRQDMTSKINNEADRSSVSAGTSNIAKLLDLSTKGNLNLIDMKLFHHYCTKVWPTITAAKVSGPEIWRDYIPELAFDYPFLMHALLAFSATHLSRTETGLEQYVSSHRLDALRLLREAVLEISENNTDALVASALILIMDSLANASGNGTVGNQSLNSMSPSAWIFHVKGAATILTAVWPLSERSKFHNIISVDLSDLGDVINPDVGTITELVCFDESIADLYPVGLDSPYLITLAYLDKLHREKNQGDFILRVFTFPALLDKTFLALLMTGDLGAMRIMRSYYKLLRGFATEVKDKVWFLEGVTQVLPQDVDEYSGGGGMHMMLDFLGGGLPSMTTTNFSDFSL
Summary of the method: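 The E-score, a modified Wilcoxon-Mann-Whitney statistic, was computed by the Universal PBM Analysis Suite for every ungapped eight-base word pooled with its reverse complement. Scans behind it were normalised with masliner after bound GST-tagged yeast transcription factors were detected with fluorescent anti-GST. The proteins, at about 100-200 nM, had been applied to universal all-10-mer Agilent arrays made double-stranded by primer extension.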

| Sequence | PBM E-score |
| --- | --- |
| ATGACCGA | 0.0751 |
| CTACCCGA | 0.174 |
| AGAGGCGG | -0.151 |
| AAACTCTG | 0.01 |
| CGGGCACC | -0.163 |
| AAAAGTTC | 0.0659 |
| ATTTTCTA | -0.0212 |
| GGTACCAA | -0.107 |
| GTTAGTTA | 0.141 |
| AATAGATG | 0.235 |
| CGTGCTGC | -0.126 |
| GCCGAGCC | -0.204 |
| ACACTCGA | 0.0541 |
| CACTGTCC | 0.0461 |
| AACTGATA | 0.0728 |
| CTGCAACC | -0.247 |
| CATTTGAA | -0.0646 |
| CTCTCCGC | -0.218 |
| GTACTTTA | 0.168 |
| CCCAGCCG | -0.176 |
| AGACGACA | 0.104 |
| ACCATAAG | -0.188 |
| ATATCTGA | -0.0825 |
| GAGATTGA | -0.19 |
| CATTCCCA | -0.0598 |

| Sequence | PBM E-score |
| --- | --- |
| ATGCCGCA | -0.0256 |
| ACCTGGAA | 0.0285 |
| CCCAGCTA | -0.152 |
| GCTCATCC | 0.0284 |
| AAACCGCC | -0.138 |
| CGCACGTA | 0.238 |
| ACGCCCCC | -0.0922 |
| CAGACGTA | 0.131 |
| GACCAAGA | -0.121 |
| TTCACAAA | -0.0817 |
| CAGGGATA | -0.0688 |
| ACCATTTA | 0.141 |
| CTGCGGTA | -0.00219 |
| CCAATGCG | -0.0869 |
| GTTGAAGA | 0.0821 |
| TTACCTAA | 0.0272 |
| GAATATTA | 0.0641 |
| GGGCGTAC | 0.246 |
| AGGGACAG | -0.222 |
| CGCCCAAC | -0.0377 |
| CAATGCGA | 0.0657 |
| ACCGCTGG | -0.171 |
| CCCGCGCC | -0.0861 |
| AATTAGCG | 0.121 |
| AGAACGTA | 0.252 |

| Sequence | PBM E-score |
| --- | --- |
| ACTTCCAG | -0.167 |
| AGTAGCCG | -0.16 |
| AGAGTAAT | -6e-05 |
| TCATTGCA | -0.0974 |
| TCTCAACA | -0.148 |
| GAACTCGC | 0.132 |
| ATTCTAAG | 0.114 |
| AATGTCTC | -0.21 |
| AACAATGA | -0.00958 |
| CCCTCCCC | -5e-05 |
| GAAGAGGA | -0.255 |
| ACTCTTCT | -0.0617 |
| CTAGCTCC | 0.00104 |
| AGGTCCGA | 0.0905 |
| CCTCAAAC | 0.216 |
| CCACCCCG | 0.0167 |
| AAATGACT | -0.149 |
| GCAGGTTA | -0.0611 |
| TACTGCTA | -0.154 |
| ATCTGCTC | -0.218 |
| AAACACAT | 0.0273 |
| AGGGCCCT | -0.104 |
| TGGAGCAA | -0.0128 |
| AGAATAGC | -0.229 |
| ATCCTCGG | 0.0854 |

| Sequence | PBM E-score |
| --- | --- |
| AGTCGTAC | 0.452 |
| CCCAATAA | -0.12 |
| ACGAGGGG | 0.352 |
| GCGTTGAC | -0.0988 |
| ATCAGACG | 0.0965 |
| ACTGCGGG | -0.119 |
| ACAGGTAG | -0.0424 |
| AGCAAGGA | -0.0783 |
| AAAGTCAT | -0.0584 |
| AGCCATTG | -0.0338 |
| AGATCCAC | -0.191 |
| AATGTGAC | -0.138 |
| GAGCGGAA | 0.0446 |
| CACGAGGG | 0.114 |
| AGGACTAA | -0.175 |
| CAACGGCC | -0.111 |
| AAGTGTAA | -0.051 |
| ACTCACTG | -0.206 |
| AACAACAA | 0.054 |
| AAACGCGC | 0.217 |
| CGTGTGCA | -0.131 |
| CACCCGTC | -0.188 |
| CAAGTGGG | -0.0996 |
| AATAGCCA | -0.054 |
| GTTGCAAA | 0.106 |

| Sequence | PBM E-score |
| --- | --- |
| AATTAATC | 0.0954 |
| CTGCATGC | -0.0745 |
| AGGGTCTC | -0.231 |
| CTCCGCGC | -0.0602 |
| GATCTCAC | -0.206 |
| CCGACTAA | 0.0553 |
| TCTCGTCA | -0.0265 |
| ATCTATGC | -0.0274 |
| AAGATCAA | -0.0151 |
| GACACTAA | 0.0421 |
| CGCGATAG | 0.121 |
| AAACGCAC | 0.26 |
| GAGAACTC | -0.127 |
| AACAGCCC | -0.122 |
| ATCGTACG | 0.435 |
| AGTGCCTC | -0.0833 |
| GCTTATAC | 0.346 |
| AGAGAGTA | -0.0841 |
| TCTGGAAA | 0.0349 |
| CCCAGGTA | -0.214 |
| CCCCTCGA | -0.0221 |
| CAATGGGC | -0.258 |
| CGTGGAGA | -0.0514 |
| ACGATTCG | 0.333 |
| GGCTTAAC | 0.137 |

| Sequence | PBM E-score |
| --- | --- |
| ATGAGCGG | -0.0954 |
| GAGGCAAC | -0.104 |
| AAGGGATG | -0.197 |
| CGCTGCTA | -0.0354 |
| TCCACCGA | -0.179 |
| GTTGGTAA | 0.206 |
| ACGTCCAA | 0.0137 |
| AGAACTAT | 0.111 |
| ACCCGAGC | 0.203 |
| TGTATCAA | -0.0549 |
| ATTCTCTG | -0.167 |
| GAGCTATA | -0.049 |
| AGTTATCA | -0.103 |
| CGCCTCCG | -0.148 |
| ACAAACTG | -0.0534 |
| AGGCGAGG | 0.0301 |
| CGGGAAGA | 0.169 |
| ATGTTATC | 0.0151 |
| AGTGCTGG | -0.234 |
| GCCAGACA | -0.147 |
| GGTGTCAC | -0.142 |
| ATACCGGG | 0.0605 |
| CTACTGAC | -0.241 |
| AGATCGCT | 0.0602 |
| ATTCAAAT | -0.033 |

| Sequence | PBM E-score |
| --- | --- |
| CTCGCTAA | 0.309 |
| AGGCAAAT | -0.0745 |
| AAAAACAG | -0.0252 |
| TCGACCCA | -0.0749 |
| ATGCATGC | -0.148 |
| AACGGAAC | 0.308 |
| AGCAATAA | -0.107 |
| GACTTGCA | 0.0268 |
| AGACACCA | -0.0334 |
| ACCCCGCA | 0.0175 |
| CCTGTTGA | -0.114 |
| AGAGTACA | -0.0785 |
| AGTTGTAT | -0.135 |
| ATTACGGG | 0.0372 |
| GAGCGTTA | -0.00232 |
| ATTGGCAC | -0.184 |
| CTACGGAC | -0.0487 |
| GATACGGA | 0.278 |
| TAAGATCA | -0.0602 |
| GCAAGCCA | -0.081 |
| GAATATGC | 0.0393 |
| CGCCTAAG | -0.0039 |
